Measured values reported in PubChem BioAssay AID504466 (National Center for Advancing Translational Sciences (NCATS), 2011).
In all, about 330,000 compounds went through this assay and about 4,200 (1.3%) were called active. This list was built around the results that the source calls inconclusive (neither active nor inactive); the mix of calls is not that of the screen. Calls follow the shape of the dose curve; as a rule, active = well fitted activation curve with a large enough effect; inconclusive = small, poorly fitted or top-dose-only effect; inactive = no such curve, though single readings can be large or run the other way. Potencies beside an inconclusive call are fits to weak or partial responses and may not hold up.

assay: qHTS screen for small molecules that induce genotoxicity in human embryonic kidney (HEK293T) cells expressing luciferase-tagged ELG1; details: HEK293T ELG1-luciferase reporter, luminescence, 16 h; series mostly up to 46 µM; also: nearly all actives have a fitted effect of over 60% in size
In short: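 Quantitative HTS format in 1536-well plates. HEK293T ELG1-luciferase reporter cells receive test compound and are incubated 16 hr at 37 °C, 5% CO2; ONE-Glo added, 30 min room temperature, then luminescence read.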
Potency is read from the fitted curve at half-maximal effect; tags tell the direction and shape of the fitted curve.

Row | SMILES | Potency
1 | COc1ccc(C(=O)Nc2cc3c4c(c2)C(C)C(=O)N4CCC3)c(OC)c1 (stereo not drawn) | inconclusive: 20.6 µM [activator, single point]
2 | O=C(C1CCN(S(=O)(=O)N2CCOCC2)CC1)N1CCN(Cc2ccc3c(c2)OCO3)CC1 | inactive
3 | Cc1[nH][nH]c(=O)c1N=Nc1ccc(Cl)cc1 | inactive
4 | CCCCCN=C(C)c1c(O)c2ccccc2oc1=O | inconclusive: 25.9 µM [activator, single point]
5 | O=C1CCCN1CCCNc1ncccc1[N+](=O)[O-] | inactive
6 | COC(=O)c1c(C(=O)OC)c(-c2cccc(F)c2)n2c1CS(=O)(=O)C2 | inactive
7 | CCOc1ccc(S(=O)(=O)NCCC(=O)NCc2ccc(OC)c(OC)c2)cc1 | inactive
8 | NC(=O)c1c(NC(=O)CN2C(=O)NC(Cc3ccccc3)C2=O)sc2c1CCC2 (stereo not drawn) | inactive
9 | CC(=O)Nc1ccc(-c2nc3c(C)cccc3[nH]2)cc1 | active: 2.91 µM
10 | O=C(CSc1ccc(Cl)cc1)N1CCCC1 | inconclusive: 18.3 µM [activator, partial curve, poor fit]
11 | COc1c(O)cc(O)c2c(=O)cc(-c3ccccc3)oc12 | inactive
12 | Cc1nc2cc(NC(=O)c3ccco3)ccc2n1C | active: 2.31 µM
13 | O=C(Nc1cccc(Br)c1)c1cc2ccccc2o1 | inconclusive: 5.17 µM [activator, partial curve]
14 | CSc1ccc(CSCC(=O)N2CCN(S(=O)(=O)c3ccc(C)cc3C)CC2)cc1 | inactive
15 | CCOc1ccc(C(=O)Nc2nnn(CC)n2)cc1 | active: 10.3 µM
16 | CCOC(=O)NNC(=O)CCn1c2c(c3ccccc31)CCCC2 | inactive
17 | COC(=O)c1ccc2c(c1)C(C)(C)C(/C=C/c1ccccc1O)=[N+]2C | inconclusive: 6.51 µM [activator, partial curve, poor fit]
18 | NC(=O)c1sc2nc3c(c(-c4cccs4)c2c1N)CCCC3 | inactive
19 | Cc1nc(-n2[nH]c3c(c2=O)CCCC3)[nH]c(=O)c1Cc1ccccc1 | inconclusive: 29.1 µM [activator, single point]
20 | O=C(Nc1cccc(Cl)c1)ON=C1c2ccccc2-c2ccccc21 | inactive
21 | Cc1cccc2nc(-c3cccnc3)c(NCCC(C)C)n12 | inactive
22 | CCCCCCOC(=O)Sc1nc2ccccc2o1 | inactive
23 | Cc1cc(NC(=O)C(=O)c2c(C)[nH]c3ccccc23)no1 | inconclusive: 23.1 µM [activator, partial curve, poor fit]
24 | COc1ccc(-c2cc3nc(CCl)[nH]c(=O)c3s2)cc1 | inconclusive: 1.83 µM [activator, partial curve, poor fit]
25 | CCc1ccc(Oc2coc3cc(O)ccc3c2=O)cc1 | inconclusive: 20.6 µM [activator, partial curve, poor fit]
26 | C=CCc1c(C)nc2c(-c3ccccc3)cnn2c1N1CCOCC1 | active: 10.3 µM

Row | SMILES | Potency
27 | CC(=O)N(C)c1ccc(NC(=O)Nc2cccc3ccccc23)cc1 | inconclusive: 20.6 µM [activator, single point]
28 | Cc1nc2ccccn2c1C(=O)N/N=C/c1ccccc1 | inactive
29 | Cc1cc(/C=C2/NC(=O)N(c3ccccc3)C2=O)c(C)n1C(C)C | inconclusive: 14.6 µM [activator, partial curve]
30 | C=CCNc1oc(-c2cccc3ccccc23)nc1C#N | inconclusive: 18.4 µM [activator, partial curve]
31 | CCc1ccc(NC(=O)CSc2nc3ccccc3nc2N2CCCCC2)cc1 | inactive
32 | CCOC(=O)c1sc2nc3c(cc2c1N)COC(C)(C)C3 | inconclusive: 7.31 µM [activator, partial curve]
33 | O=C(/C=C/c1ccc2c(c1)OCO2)c1ccco1 | inconclusive: 23.1 µM [activator, partial curve, poor fit]
34 | O=C(Nc1ccc(NC(=O)c2cccs2)cc1Cl)c1ccco1 | inconclusive: 13 µM [activator, partial curve, poor fit]
35 | COc1cccc(CNc2ccc(Br)cn2)c1O | inconclusive: 2.59 µM [activator, full curve]
36 | COc1ccc(-c2csc(-c3ccccc3)n2)c(OC)c1 | active: 4.61 µM
37 | Cc1ccsc1/C=C(\C#N)C(=O)NCc1ccco1 | inconclusive: 23.1 µM [activator, partial curve, poor fit]
38 | Cc1cccc(C)c1NC(=O)CN1CCN(C(=O)CNC(=O)c2ccc(N3CCCC3=O)cc2)CC1 | inactive
39 | Cc1ccc(Nc2nnc(SCC(=O)Nc3ccc(S(=O)(=O)N4CCOCC4)cc3)s2)cc1 | inconclusive: 11.6 µM [activator, partial curve, poor fit]
40 | CC(C)c1nnc(NC(=O)c2cc3ccccc3o2)s1 | inconclusive: 3.98 µM [activator, partial curve, poor fit]
41 | O=C(N/N=C/c1ccsc1)c1ccc2c(c1)OCO2 | inconclusive: 9.2 µM [activator, partial curve]
42 | Cc1ccc(-c2cc3nc(-c4ccc(Br)cc4)cc(N)n3n2)cc1 | inactive
43 | O=C1c2ccccc2[C@@H]2C[C@@H](O)[C@H](Nc3cccc(C(F)(F)F)c3)CCN12 | inactive
44 | Cc1nc(N2CCN(C(=O)c3ccco3)CC2)nc2c1C(=O)CCC2 | active: 0.461 µM
45 | CC(=O)Nc1cccc(C(=O)OCC(=O)c2ccc3c(c2)OCO3)c1 | inconclusive: 2.06 µM [activator, partial curve]
46 | COc1cc(/C=N/NC(=O)c2cc(-c3ccccc3OC(C)C)nc3ccccc23)ccc1O | inactive
47 | CN(C(=O)c1cccc(NC(=O)Cc2ccc([N+](=O)[O-])cc2)c1)C1CCCCC1 | inactive
48 | Cc1cccc(N2CCN(C(=O)CCCOc3ccccc3)CC2)c1C | active: 2.59 µM
49 | COc1ccc(-n2c(O)c(C=Nc3ccccc3)c3ccccc3c2=O)cc1 | inconclusive: 23.1 µM [activator, partial curve, poor fit]
50 | O=c1cc(-c2ccccc2)oc2ccc(O)cc12 | active: 20.6 µM
51 | CC1CCN(S(=O)(=O)c2ccc(C(=O)Nc3ncccc3O)cc2)CC1 | inconclusive: 23.1 µM [activator, single point]
52 | COc1cccc(-c2ncc3ccccn23)c1 | inconclusive: 9.2 µM [activator, partial curve]

Row | SMILES | Potency
53 | CN(C)c1ccc(/C=N/NC(=O)c2cnc3ccccc3c2)cc1 | inactive
54 | Cc1ccccc1OCc1nc(-c2ccc(NC(=O)c3cccs3)cc2)no1 | inconclusive: 18.4 µM [activator, partial curve, poor fit]
55 | COc1cccc(NC(=O)CN(C)C(=O)c2cc3c(s2)CCC3)c1 | inconclusive: 16.4 µM [activator, single point]
56 | Fc1ccc(OCc2nc3ccccc3s2)cc1 | active: 2.31 µM
57 | CCOc1cccc(C(=O)Nc2nccs2)c1 | inconclusive: 25.9 µM [activator, partial curve, poor fit]
58 | c1ccc(-c2nc3ccccc3o2)nc1 | inconclusive: 16.4 µM [activator, partial curve, poor fit]
59 | O=C(Nc1cccnc1)c1ccc2c(c1)OCO2 | inconclusive: 25.9 µM [activator, partial curve, poor fit]
60 | c1ccc(-c2csc(NNC3=NCCCCC3)n2)cc1 | inconclusive: 12.6 µM [activator, partial curve]
61 | COc1ccc(-n2cc(C(=O)c3ccccc3O)cn2)cc1 | active: 2.31 µM
62 | COc1ccc(N2C(=O)c3ccccc3NC23CCC(C)CC3)cc1 (stereo not drawn) | inconclusive: 7.08 µM [activator, partial curve, poor fit]
63 | C/C(=N\NC(=O)c1cc(Br)ccc1O)c1cccs1 | inconclusive: 2.59 µM [activator, full curve]
64 | Clc1ccc(Nc2nc(N3CCOCC3)nc(N3CCOCC3)n2)cc1Cl | inactive
65 | CCOC(=O)N1CCN(C(=O)C(=O)N/N=C/c2ccc(OC)cc2OC)CC1 | inactive
66 | CSc1ccccc1C(=O)N1CCC2(CC1)CC(=O)c1ccccc1O2 | inactive
67 | COCCNC(=S)N=Nc1c(O)[nH]c2ccc([N+](=O)[O-])cc12 | inactive
68 | CCOc1ccccc1C1C2=C(COC2=O)Nc2cc3c(cc21)OCO3 (stereo not drawn) | inconclusive: 8.2 µM [activator, partial curve, poor fit]
69 | Cc1ccc(Nc2nnc(SCc3nc4ccccc4c(=O)[nH]3)s2)cc1 | inconclusive: 32.6 µM [activator, partial curve, poor fit]
70 | CS(=O)(=O)Cc1ccc(C(=O)Nc2cccc(-c3nc4ccccc4[nH]3)c2)cc1 | inactive
71 | CC1CCCCN1C(=O)CCc1nnc(Cc2c[nH]c3ccccc23)o1 (stereo not drawn) | inactive
72 | C=CCNC(=S)N/N=C(\C)c1ccccn1 | inconclusive: 4.11 µM [activator, full curve, poor fit]
73 | COc1cccc(CC2(CO)CCN(Cc3cccn3-c3cccnc3)CC2)c1 | inactive
74 | CCSc1sc(CC)cc1C=O | inconclusive: 29.1 µM [activator, single point]
75 | Brc1ccc(-c2csc(/N=C/N3CCCC3)n2)cc1 | inconclusive: 23.1 µM [activator, partial curve, poor fit]
76 | CCOc1ccc(OCCSc2nc(-c3ccccc3)cc(=O)[nH]2)cc1 | inactive
77 | CSc1ccc(NC(=O)NCc2ccccc2)cc1 | inconclusive: 23.1 µM [activator, partial curve, poor fit]
78 | Cc1cccc(-n2ncc3c(NCc4ccccc4)ncnc32)c1 | active: 18.4 µM
